Laboratory results as given in PubChem BioAssay AID894 (National Center for Advancing Translational Sciences (NCATS), 2007).
In all, about 150,000 compounds went through this assay and about 6,500 (4.3%) were called active. This list was built around the results that the source calls inconclusive (neither active nor inactive); the mix of calls is not that of the screen. Calls come from the whole dose curve; as a rule, active = well fitted inhibition curve with a large enough effect (not every such curve was filed as active); inconclusive = small, poorly fitted or top-dose-only effect, or another doubt; inactive = no such curve, though single readings can be large or run the other way. Potencies of inconclusive entries are left out as doubtful fits.

biological target: 15-hydroxyprostaglandin dehydrogenase [NAD(+)] (Homo sapiens) (UniProt P15428); assay: qHTS Assay for Inhibitors of HPGD (15-Hydroxyprostaglandin Dehydrogenase); details: purified HPGD, NADH fluorescence kinetic, PGE2 substrate; activity change, negative = inhibition: hits give low values
Summary of the method: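 NADH formation kinetics: reaction with 30 uM PGE2 and 1 mM NAD+ (final), 20 nM enzyme, Tris-HCl pH 8 with Tween 20, after 15 min compound preincubation at room temperature. Fluorescence change, last versus first of five reads.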
% is set by controls: 0 for no effect and ±100 for the full control effect; potency is the fitted concentration of half-maximal effect; tags give direction and shape of the fitted curve.

Sequence of UniProt P15428 (P15428 whole entry, looked up): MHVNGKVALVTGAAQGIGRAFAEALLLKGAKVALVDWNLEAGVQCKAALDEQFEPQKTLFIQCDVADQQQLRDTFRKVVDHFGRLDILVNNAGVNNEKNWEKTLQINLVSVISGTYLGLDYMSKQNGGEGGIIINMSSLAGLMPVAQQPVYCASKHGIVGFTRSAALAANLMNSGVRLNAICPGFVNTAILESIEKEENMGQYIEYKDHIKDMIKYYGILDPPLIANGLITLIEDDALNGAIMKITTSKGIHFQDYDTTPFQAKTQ

Row | Structure (SMILES) | Potency | activity change, negative = inhibition
1 | CN(C)c1ccc(/C=N/NC(=O)C(O)(c2ccccc2)c2ccccc2)o1 | inconclusive [inhibitor, single point] | 
2 | CCOC(=O)C1=C(C)N=c2s/c(=C/c3ccco3)c(=O)n2C1c1cccc(OC)c1 (stereo unspecified) | active: 14.1 µM | 
3 | N#Cc1nc(-c2cccc3ccccc23)oc1N1CCCCC1 | inconclusive [inhibitor, partial curve] | 
4 | Cc1ccccc1-c1nc(-c2ccc(NC(=O)c3cccs3)cc2)no1 | inconclusive [inhibitor, single point] | 
5 | c1csc(-c2nn3c(Cn4nnc5ccccc54)nnc3s2)c1 | inconclusive [inhibitor, partial curve] | 
6 | O=C(c1ccc(-n2cccc2)cc1)N1CCOCC1 | inconclusive [inhibitor, single point] | 
7 | COc1ccc(C(=O)Nn2cc3c(c2-c2ccccc2)c(=O)n(C)c(=O)n3C)cc1 |  | inactive: 0.772%
8 | CCN1CCCC1CNC(=O)c1cc2c(-c3ccc(Cl)cc3)nn(C)c2s1 (stereo unspecified) | inconclusive [inhibitor, partial curve] | 
9 | CCN(CC)c1ccc2c(C)c(CN3CCOCC3)c(=O)oc2c1 | inconclusive [inhibitor, partial curve] | 
10 | O=C(CN1c2cccc3cccc(c23)S1(=O)=O)Nc1cccc(S(=O)(=O)N2CCOCC2)c1 | inconclusive [inhibitor, partial curve] | 
11 | CSc1ccc(/C=C/C(=O)NC23CC4CC(CC(C4)C2)C3)cc1 | inconclusive [inhibitor, partial curve] | 
12 | O=C1Nc2cc(C(=O)N3CCc4ccccc4C3)ccc2S/C1=C\c1ccccc1 | active: 15.8 µM | 
13 | Cc1ccc(C)c(NS(=O)(=O)c2cc(C(=O)O)ccc2Cl)c1 |  | inactive: -5.46%
14 | CC1(C)CC(=O)c2cnc(NCC3CCCO3)nc2C1 (stereo unspecified) | active: 22.4 µM | 
15 | CC(=O)N1CCc2cc(S(=O)(=O)CCC(=O)Nc3c(C)n(C)n(-c4ccccc4)c3=O)ccc21 |  | inactive: 6.58%
16 | O=C(NCc1ccccc1F)c1ccc2c(c1)OCO2 | inconclusive [inhibitor, partial curve] | 
17 | COc1ccc(OC)c(/C=C(\NC(=O)c2ccccc2)C(=O)N/N=C/c2ccc(C)s2)c1 | inconclusive [inhibitor, single point] | 
18 | CCc1c(C)n2nc(C)cc2[nH]c1=O | inconclusive [inhibitor, partial curve] | 
19 | CCOC(=O)COc1ccccc1/C=C\[N+](=O)[O-] | active: 15.8 µM | 
20 | COc1ccc(CCNC(=O)c2cc(-c3ccccc3O)n[nH]2)cc1OC | active: 28.2 µM | 
21 | CC1=C(C(=O)Nc2ccccc2F)C(c2ccsc2)C2=C(CC(c3ccccc3)CC2=O)N1 (stereo unspecified) | inconclusive [inhibitor, partial curve] | 
22 | Oc1ccc(/C=N/Nc2cccc3cccnc23)c(O)c1 | active: 15.8 µM | 
23 | CC(=O)N1c2c(cc(Br)cc2S(=O)(=O)NCc2ccc3c(c2)OCO3)CC1C (stereo unspecified) | inconclusive [inhibitor, single point] | 

Row | Structure (SMILES) | Potency | activity change, negative = inhibition
24 | CC(C)OCCCNC(=O)CN1C(=O)/C(=C/c2ccccc2)Sc2ccccc21 | inconclusive [inhibitor, single point] | 
25 | CCOC(=O)c1ccc(Oc2c(C)oc3cc(OS(C)(=O)=O)ccc3c2=O)cc1 | inconclusive [inhibitor, partial curve] | 
26 | CCCCNC(=O)c1onc(CSc2cc(C)ccc2C)c1C(=O)O |  | inactive: -19.7%
27 | COc1cc(NC(=S)Nc2ccc(Br)cc2Cl)c(OC)cc1Cl |  | inactive: -27.4%
28 | Cc1sc(NC(=O)c2ccccc2)c(C#N)c1-c1ccccc1 | inconclusive [inhibitor, partial curve, poor fit] | 
29 | CCOc1cccc(-c2nn3c(-c4ccco4)nnc3s2)c1 | inconclusive [inhibitor, partial curve] | 
30 | CC(C)(C)C(=O)[C@@H]1[C@@H]2C(=O)N(Cc3ccccc3)C(=O)[C@@H]2[C@H]2c3ccccc3C=CN12 |  | inactive: -14.8%
31 | O=C(c1ccc(-c2nnc(Nc3ccccc3)c3ccccc23)cc1)N1C[C@H]2C[C@H](C1)c1cccc(=O)n1C2 | active: 31.6 µM | 
32 | COc1ccc(/C=N/n2cnnc2SCCO)cc1OC | inconclusive [inhibitor, partial curve] | 
33 | O=C1/C(=C/N(C(=O)c2ccco2)c2ccc(Br)cc2)Sc2ccccc21 | active: 31.6 µM | 
34 | Cc1cc(C)c2cc(CN(CCO)C(c3nnnn3Cc3ccc(F)cc3)C(C)C)c(=O)[nH]c2c1 (stereo unspecified) |  | inactive: 1.16%
35 | O=C(CC(c1ccccc1)c1cc(Br)ccc1O)NCCN1CCOCC1 (stereo unspecified) | active: 14.1 µM | 
36 | O=C(Nc1ccc(Cl)cc1)N1CCCC1 |  | inactive: -0.708%
37 | NC(=O)CSC1=Nc2ccccc2C2=NC(CCC(=O)NCc3ccc(F)cc3)C(=O)N12 (stereo unspecified) | inconclusive [inhibitor, partial curve] | 
38 | COc1cc2ccccc2cc1C(=O)N1CCN(C)CC1 | inconclusive [inhibitor, partial curve] | 
39 | CCC(=O)Nc1ccc(S(=O)(=O)N2CCOCC2)cc1 |  | inactive: -4.92%
40 | Cc1cc(Cl)ccc1NC(=S)Nc1ccccn1 |  | inactive: -12.2%
41 | CCn1c2ccccc2c2cc(NC(=O)c3cc(OC)cc(OC)c3)ccc21 | inconclusive [inhibitor, single point] | 
42 | O=C1NC2(C=Cc3c(ccc4ccccc34)O2)Oc2ccccc21 (stereo unspecified) | inconclusive [inhibitor, partial curve] | 
43 | C=C(C)CSc1nc2nc(C)c(Br)cc2[nH]1 | active: 14.1 µM | 
44 | COc1cccc(-c2cc3nc(-c4ccccc4)cc(N4CCC5(CC4)OCCO5)n3n2)c1 | inconclusive [inhibitor, partial curve] | 
45 | O=C(c1ccc(Cl)c(F)c1F)N1CCCC1 | active: 20 µM | 
46 | CC(=O)C1=C(O)C(=O)N(c2ccc(C)cc2)C1c1ccccn1 (stereo unspecified) | inconclusive [inhibitor, single point] | 
